The other results are listed elsewhere or left out. Rule as the data show it: active = 3.2 or more and inactive = the rest. Only a few entries rise above the background.
The binders below were run against SHP2 C-SH2 domain E139D (assay: enrichment score (SH2-bound / input frequency) (ratio); bacterial display of known human phosphotyrosine sites (pTyr-Var adds point mutants) read by sequencing; higher = stronger binding; tyrosines were phosphorylated by kinases first). Settings: peptide library: pTyr-Var.
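Also: displayed peptides selected on beads carrying the immobilized SH2 domain, with library peptides lacking any tyrosine serving as negative controls.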

Binder | enrichment score
LFSGDCFRIQG [DDR2_Y740_Y740C_YF] | inactive: 1.13
YSGDYYRIQGR [DDR2_Y741] | inactive: 0.474
FSGDFYRIQGR [DDR2_Y741_YF] | inactive: 0.585
KALKQYRAGPS [DDX27_Y763] | inactive: 0.374
QLDQHYLLVPE [DDX49_Y223_R222H] | inactive: 0.724
TQNAVYSAANF [DDX5_Y535_G533A_YF] | inactive: 0.894
IAAEYYDNLPH [DEGS1_Y284] | inactive: 0.994
IAAEFYDNLPH [DEGS1_Y284_YF] | inactive: 0.7
QEMMEYRHQIQ [DES_Y324] | inactive: 0.776
RQIQSYTCEID [DES_Y331_H326R] | inactive: 1.02
SEPSGYQDNIA [DES_Y363_A360P] | inactive: 0.601
RHLREYQDLLN [DES_Y388] | inactive: 1.8
RHPREYQDLLN [DES_Y388_L385P] | inactive: 0.619
GMSQAYSSSQR [DES_Y5] | inactive: 0.724
TSIGNYYKPWF [DHCR24_Y299_N294T] | inactive: 0.896
NSIGNYFKPWF [DHCR24_Y299_YF] | inactive: 2.12
VIESSYTSADG [DHCR7_Y382_C380S] | inactive: 0.573
DAAEDYAEGVR [DHODH_Y194] | inactive: 0.527

The binders below were run against SHP2 C-SH2 domain wild-type in the same assay as above. Settings: peptide library: pTyr-Var.

Binder | enrichment score
LFSGDCFRIQG [DDR2_Y740_Y740C_YF] | inactive: 1.12
YSGDYYRIQGR [DDR2_Y741] | inactive: 0.603
FSGDFYRIQGR [DDR2_Y741_YF] | inactive: 0.454
KALKQYRAGPS [DDX27_Y763] | inactive: 0.494
QLDQHYLLVPE [DDX49_Y223_R222H] | inactive: 0.673
TQNAVYSAANF [DDX5_Y535_G533A_YF] | inactive: 0.868
IAAEYYDNLPH [DEGS1_Y284] | inactive: 0.752
IAAEFYDNLPH [DEGS1_Y284_YF] | inactive: 0.707
QEMMEYRHQIQ [DES_Y324] | inactive: 0.706
RQIQSYTCEID [DES_Y331_H326R] | inactive: 0.583
SEPSGYQDNIA [DES_Y363_A360P] | inactive: 0.524
RHLREYQDLLN [DES_Y388] | inactive: 1.52
RHPREYQDLLN [DES_Y388_L385P] | inactive: 0.57
GMSQAYSSSQR [DES_Y5] | inactive: 0.687
TSIGNYYKPWF [DHCR24_Y299_N294T] | inactive: 1.88
NSIGNYFKPWF [DHCR24_Y299_YF] | active: 3.46
VIESSYTSADG [DHCR7_Y382_C380S] | inactive: 0.436
DAAEDYAEGVR [DHODH_Y194] | inactive: 0.409

Each binder was assayed against SHP2 N-SH2 domain L43F in the same assay as above. Settings: peptide library: pTyr-Var.

Binder | enrichment score
LFSGDCFRIQG [DDR2_Y740_Y740C_YF] | inactive: 1.02
YSGDYYRIQGR [DDR2_Y741] | inactive: 0.586
FSGDFYRIQGR [DDR2_Y741_YF] | inactive: 0.512
KALKQYRAGPS [DDX27_Y763] | inactive: 0.402
QLDQHYLLVPE [DDX49_Y223_R222H] | inactive: 0.991
TQNAVYSAANF [DDX5_Y535_G533A_YF] | inactive: 0.862
IAAEYYDNLPH [DEGS1_Y284] | inactive: 0.852
IAAEFYDNLPH [DEGS1_Y284_YF] | inactive: 0.882
QEMMEYRHQIQ [DES_Y324] | inactive: 0.823
RQIQSYTCEID [DES_Y331_H326R] | inactive: 0.743
SEPSGYQDNIA [DES_Y363_A360P] | inactive: 0.582
RHLREYQDLLN [DES_Y388] | inactive: 1.24
RHPREYQDLLN [DES_Y388_L385P] | inactive: 0.578
GMSQAYSSSQR [DES_Y5] | inactive: 0.562
TSIGNYYKPWF [DHCR24_Y299_N294T] | active: 5.3
NSIGNYFKPWF [DHCR24_Y299_YF] | active: 10.8
VIESSYTSADG [DHCR7_Y382_C380S] | inactive: 0.647
DAAEDYAEGVR [DHODH_Y194] | inactive: 0.462

Each binder was assayed against SHP2 N-SH2 domain T42A in the same assay as above. Settings: peptide library: pTyr-Var.

Binder | enrichment score
LFSGDCFRIQG [DDR2_Y740_Y740C_YF] | inactive: 0.927
YSGDYYRIQGR [DDR2_Y741] | inactive: 0.711
FSGDFYRIQGR [DDR2_Y741_YF] | inactive: 0.533
KALKQYRAGPS [DDX27_Y763] | inactive: 0.398
QLDQHYLLVPE [DDX49_Y223_R222H] | inactive: 0.565
TQNAVYSAANF [DDX5_Y535_G533A_YF] | inactive: 0.649
IAAEYYDNLPH [DEGS1_Y284] | inactive: 0.895
IAAEFYDNLPH [DEGS1_Y284_YF] | inactive: 0.657
QEMMEYRHQIQ [DES_Y324] | inactive: 0.608
RQIQSYTCEID [DES_Y331_H326R] | inactive: 0.559
SEPSGYQDNIA [DES_Y363_A360P] | inactive: 0.554
RHLREYQDLLN [DES_Y388] | inactive: 1.22
RHPREYQDLLN [DES_Y388_L385P] | inactive: 0.572
GMSQAYSSSQR [DES_Y5] | inactive: 0.471
TSIGNYYKPWF [DHCR24_Y299_N294T] | active: 5.56
NSIGNYFKPWF [DHCR24_Y299_YF] | active: 13.8
VIESSYTSADG [DHCR7_Y382_C380S] | inactive: 0.628
DAAEDYAEGVR [DHODH_Y194] | inactive: 0.473

These binders were tested against SHP2 N-SH2 domain T52S in the same assay as above. Settings: peptide library: pTyr-Var.

Binder | enrichment score
LFSGDCFRIQG [DDR2_Y740_Y740C_YF] | inactive: 1.07
YSGDYYRIQGR [DDR2_Y741] | inactive: 0.441
FSGDFYRIQGR [DDR2_Y741_YF] | inactive: 0.539
KALKQYRAGPS [DDX27_Y763] | inactive: 0.402
QLDQHYLLVPE [DDX49_Y223_R222H] | inactive: 0.753
TQNAVYSAANF [DDX5_Y535_G533A_YF] | inactive: 0.811
IAAEYYDNLPH [DEGS1_Y284] | inactive: 0.783
IAAEFYDNLPH [DEGS1_Y284_YF] | inactive: 0.889
QEMMEYRHQIQ [DES_Y324] | inactive: 0.611
RQIQSYTCEID [DES_Y331_H326R] | inactive: 1.03
SEPSGYQDNIA [DES_Y363_A360P] | inactive: 0.437
RHLREYQDLLN [DES_Y388] | inactive: 1.73
RHPREYQDLLN [DES_Y388_L385P] | inactive: 0.451
GMSQAYSSSQR [DES_Y5] | inactive: 0.443
TSIGNYYKPWF [DHCR24_Y299_N294T] | active: 7.09
NSIGNYFKPWF [DHCR24_Y299_YF] | active: 13
VIESSYTSADG [DHCR7_Y382_C380S] | inactive: 0.474
DAAEDYAEGVR [DHODH_Y194] | inactive: 0.531

These binders were tested against SHP2 N-SH2 domain wild-type in the same assay as above. Settings: peptide library: pTyr-Var.

Binder | enrichment score
LFSGDCFRIQG [DDR2_Y740_Y740C_YF] | inactive: 1.11
YSGDYYRIQGR [DDR2_Y741] | inactive: 0.668
FSGDFYRIQGR [DDR2_Y741_YF] | inactive: 0.539
KALKQYRAGPS [DDX27_Y763] | inactive: 0.488
QLDQHYLLVPE [DDX49_Y223_R222H] | inactive: 1.06
TQNAVYSAANF [DDX5_Y535_G533A_YF] | inactive: 0.753
IAAEYYDNLPH [DEGS1_Y284] | inactive: 0.874
IAAEFYDNLPH [DEGS1_Y284_YF] | inactive: 0.787
QEMMEYRHQIQ [DES_Y324] | inactive: 0.97
RQIQSYTCEID [DES_Y331_H326R] | inactive: 0.998
SEPSGYQDNIA [DES_Y363_A360P] | inactive: 0.641
RHLREYQDLLN [DES_Y388] | inactive: 1.84
RHPREYQDLLN [DES_Y388_L385P] | inactive: 0.661
GMSQAYSSSQR [DES_Y5] | inactive: 0.711
TSIGNYYKPWF [DHCR24_Y299_N294T] | inactive: 2.14
NSIGNYFKPWF [DHCR24_Y299_YF] | active: 5.06
VIESSYTSADG [DHCR7_Y382_C380S] | inactive: 0.665
DAAEDYAEGVR [DHODH_Y194] | inactive: 0.564
